The text below walks through data of article PMC6212790.

This is one part of the list. At the low end of the ranking the order means little.

For this experiment, the target named is T1, GST-Rok (full length) (UniProt O34857).
T1 sequence: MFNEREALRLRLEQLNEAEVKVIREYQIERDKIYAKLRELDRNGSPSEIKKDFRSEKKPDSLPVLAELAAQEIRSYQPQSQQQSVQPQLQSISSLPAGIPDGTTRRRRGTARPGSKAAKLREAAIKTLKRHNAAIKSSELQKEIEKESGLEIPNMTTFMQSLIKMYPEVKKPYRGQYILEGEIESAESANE
The experiment is described as follows: protein binding microarray.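 Note: rank score from −0.5 (least bound) to 0.5 (best bound).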 Particulars: Rok is a gene silencer of Bacillus subtilis; high values mean tight binding; most listed sequences are background and not binding sites; double strand, one strand shown.
For AAGTCGGC, the binding signal is -0.0992 E-score.
In turn, AAGCCAGA gave a binding signal of -0.169 E-score.
In the case of AAAGAAAG, the binding signal worked out at 0.132 E-score.
AAAGAAGT: the binding signal was -0.0186 E-score.
In the case of GACATCAA, the binding signal amounted to 0.0033 E-score.
The sequence AATTACGA showed a binding signal of 0.266 E-score.
ATTATAAT had a binding signal of 0.328 E-score.
On to CCAGGAGC, for which the binding signal was -0.14 E-score.
The figure for AGCTGACC is -0.227 E-score.
ACTGAGAG displayed a binding signal of -0.12 E-score.
The sequence AGCCTGAA came in with a binding signal of -0.227 E-score.
As for CCATACGC, the binding signal was determined as 0.0524 E-score.
Regarding CGTCTTGC, the binding signal came to 0.0521 E-score.
In turn, ATGGGGAA registered a binding signal of -0.053 E-score.
AGATCGCT: the binding signal was found to be 0.0961 E-score.
With TGCTGTAA the figure was 0.133 E-score; with AAATCGCT, 0.19 E-score.
GGATCCCC returned a binding signal of -0.384 E-score.
The figure for AACTGGCC is -0.00391 E-score; for ATCAAACA it is 0.104 E-score.
Turning to CTCGTACA, the binding signal was -0.0435 E-score.
For AGATTGGA, the binding signal worked out at 0.177 E-score.
On to GATAAGTA, for which the binding signal was 0.24 E-score.
The sequence CAGCCGTC returned a binding signal of -0.33 E-score.
Consider AGGTACCC, for which the binding signal was -0.00763 E-score.
Sequence TGCGTGAA registered a binding signal of -0.136 E-score.
For the sequence AGCGCGCC, the binding signal is -0.239 E-score.
In turn, CATATCGA came in with a binding signal of 0.0224 E-score.
As to GACGTCGC, the binding signal was -0.246 E-score.
With AACGCCTG the figure was -0.315 E-score; with GTCTCTTA, -0.194 E-score; with CCGGCAGC, -0.14 E-score.
Regarding AATACACT, the binding signal came out at 0.186 E-score.
Regarding CAGTTCGC, the binding signal was -0.231 E-score.
The figure for ATCTGCTA is 0.228 E-score; for CACAGGCC it is -0.0785 E-score.
AAATCGCC registered a binding signal of 0.0434 E-score.
As to GGATGTAC, the binding signal was 0.153 E-score.
In turn, CTTTGCCC had a binding signal of -0.136 E-score.
Turning to ACTCGACG, the binding signal was -0.0298 E-score.
CTGAAAGA gave a binding signal of 0.0747 E-score.
Regarding ATTTAAAA, the binding signal is 0.0774 E-score.
The sequence GACCTTAC came in with a binding signal of -0.0577 E-score.
The figure for AAGTCTCA is -0.13 E-score; for AATTGTTC it is 0.285 E-score.
The sequence TAGGGGCA gave a binding signal of -0.0733 E-score.
Turning to ACGGAGGC, the binding signal was -0.345 E-score.
Sequence AAACCTTA showed a binding signal of -0.0224 E-score.
The figure for CAACTGAG is 0.013 E-score; for CCTCAATC it is -0.128 E-score; for ACCCGACA it is -0.182 E-score.
CCATTCGA yielded a binding signal of 0.0211 E-score.
With CGGTGCAG the figure was -0.127 E-score; with CCTATGAC, 0.0186 E-score; with CTCCGGAG, -0.138 E-score.
ACAACCTC gave a binding signal of -0.0717 E-score.
Consider ATATAGCA, for which the binding signal is 0.213 E-score.
For ATCGCCAA, the binding signal was -0.0596 E-score.
ATCAAAGG came in with a binding signal of -0.072 E-score.
With GTTATTTA, the binding signal was found to be 0.197 E-score.
Take AGCTAAAT: the binding signal was 0.18 E-score.
Turning to AAAGAAGG, the binding signal was -0.129 E-score.
The figure for GAGCTTAC is -0.0909 E-score; for CGTATTTA it is 0.261 E-score; for ATTAACAA it is 0.225 E-score.
AATGCATC yielded a binding signal of 0.0539 E-score.
Regarding ATTATTAG, the binding signal was 0.255 E-score.
Take TAATTATA: the binding signal amounted to 0.385 E-score.
The sequence CAGAACCA gave a binding signal of -0.00486 E-score.
CGATTGCG gave a binding signal of -0.00985 E-score.
In turn, ACCCCTAG came in with a binding signal of -0.113 E-score.
For the sequence CGCGGCTA, the binding signal is -0.2 E-score.
With CCAGTATC the figure was -0.0798 E-score.
Sequence AAGTGCGT gave a binding signal of -0.0891 E-score.
With GTTCGCTA, the binding signal was found to be 0.0859 E-score.
Regarding CACGTGAC, the binding signal was -0.21 E-score.
The figure for AAGTGATT is 0.0598 E-score.
TCGCGTAA: the binding signal came out at 0.195 E-score.
Consider GAAGAAAA, for which the binding signal was -0.0942 E-score.
Regarding CGGCAATC, the binding signal is -0.144 E-score.
The figure for CAAAGTTG is -0.169 E-score.
In the case of AACAAACA, the binding signal was found to be 0.0686 E-score.
On to AGTCGGCA, for which the binding signal is -0.0691 E-score.
The figure for GGGGAAAA is -0.0477 E-score; for AGAAGCAC it is -0.167 E-score; for ACAAATTG it is -0.0361 E-score.
As to AACGGAGC, the binding signal is 0.0292 E-score.
Take CAGTGCGC: the binding signal is -0.0687 E-score.
TGTTTAAA gave a binding signal of 0.0326 E-score.
AGCATACT returned a binding signal of 0.0869 E-score.
ATCAGCAG displayed a binding signal of 0.0961 E-score.
GATCCTTA returned a binding signal of -0.00255 E-score.
With CAGGAAGG, the binding signal was -0.111 E-score.
With GACGCAAA the figure was 0.00774 E-score.
ACAAGAGT registered a binding signal of 0.0849 E-score.
For the sequence GGTCGCAC, the binding signal is -0.183 E-score.
Sequence AGACACAG returned a binding signal of -0.115 E-score.
The figure for CCTACGCC is -0.171 E-score.
The sequence GCAGCTTA yielded a binding signal of -0.093 E-score.
AGTAAAAG came in with a binding signal of 0.19 E-score.
The figure for AAAGCTCG is -0.176 E-score.
With ATGACCAT the figure was -0.0893 E-score; with CCGGGCAA, -0.268 E-score; with CCCTCCAC, -0.231 E-score.
The figure for CGTTCGAG is -0.0997 E-score; for CGGTGGTC it is -0.275 E-score.
Sequence GTACGTAA gave a binding signal of 0.119 E-score.
As to CAGTTAGA, the binding signal turned out to be 0.000546 E-score.
The figure for AGTGCTTG is -0.0505 E-score; for AATATTTG it is 0.256 E-score; for AGGGATCA it is -0.259 E-score.
The sequence CTTGTCTC had a binding signal of 0.0221 E-score.
For ATCAATTA, the binding signal amounted to 0.231 E-score.
In the case of ACAGCTAA, the binding signal turned out to be 0.193 E-score.
The figure for ACGCAGAG is -0.119 E-score; for CCTGGCCA it is -0.293 E-score; for GTATACTA it is 0.378 E-score.
GTCTCGAA came in with a binding signal of -0.0554 E-score.
For the sequence CCTGACCG, the binding signal is -0.228 E-score.
With AACTGACG the figure was -0.0918 E-score.
Turning to CGAGTTAC, the binding signal worked out at 0.0192 E-score.
ACGGGGGC: the binding signal is -0.5 E-score.
For the sequence ATCATTAC, the binding signal was 0.315 E-score.
As to GTGAATGA, the binding signal was -0.163 E-score.
The sequence CGTCTCAG registered a binding signal of -0.278 E-score.
For CAGATACC, the binding signal was -0.000413 E-score.
In the case of ACGAAAGG, the binding signal was -0.0693 E-score.
ACATGTCC: the binding signal was -0.122 E-score.
On to GACCATAA, for which the binding signal was -0.0227 E-score.
The figure for CGTCTTTC is 0.000649 E-score; for CCCGACTA it is -0.18 E-score; for CGCCTTTC it is -0.138 E-score.
As to ATGGCACG, the binding signal came to 0.0421 E-score.
Consider ACCCGAAG, for which the binding signal is -0.241 E-score.
Regarding AACGAGAT, the binding signal is -0.0704 E-score.
Regarding AACCCCAG, the binding signal was -0.299 E-score.
The figure for CAGCCATA is 0.0273 E-score; for AAGCGATT it is 0.0584 E-score.
With TGTCCCAA the figure was -0.1 E-score; with ACATAACC, 0.0404 E-score; with ATCGTTCG, 0.0858 E-score.
For the sequence GCAATAAC, the binding signal amounted to 0.0651 E-score.
GCAGCGAC: the binding signal is -0.141 E-score.
Turning to AAACTCTC, the binding signal came to 0.106 E-score.
The figure for AACCGAAA is -0.029 E-score; for CTTCGGCA it is -0.316 E-score; for CAGACAAG it is -0.0886 E-score.
In turn, CAGGGAGG had a binding signal of -0.376 E-score.
ATGAAGGG returned a binding signal of -0.149 E-score.
Regarding GAGTACGC, the binding signal is -0.0824 E-score.
With TAGATTCA the figure was 0.304 E-score; with CAAGGTAC, -0.0664 E-score.
Take TAACGGAA: the binding signal turned out to be 0.23 E-score.
Take ATAACGGA: the binding signal was found to be 0.0421 E-score.
With ATCATAGC the figure was 0.195 E-score; with ATCCGTAA, -0.114 E-score; with CAAAAACA, 0.183 E-score.
As for CGTGACAA, the binding signal is -0.11 E-score.
The sequence CAGTTACC yielded a binding signal of 0.135 E-score.
GGGGACTA: the binding signal is -0.22 E-score.
With ACTGAAGA the figure was -0.00572 E-score; with CTGAAAAG, -0.0901 E-score; with AGGGAGCG, -0.389 E-score.
On to AGTCCTTC, for which the binding signal is -0.205 E-score.
The sequence AACAGCCC gave a binding signal of -0.273 E-score.
The sequence CTAGTTTC came in with a binding signal of 0.413 E-score.
The sequence CAGGGTGA yielded a binding signal of -0.203 E-score.
With GCGCTCCA the figure was -0.264 E-score; with AGGCATCC, -0.215 E-score.
The figure for ATTTGGGC is 0.0192 E-score; for CCAGTCTC it is -0.19 E-score; for GGGTCTCA it is -0.249 E-score.
